The whole screen tested about 410,000 compounds, of which about 5,000 (1.2%) were called active. The shares of active, inactive and inconclusive entries below differ from those in the screen. Calls come from the whole dose curve; as a rule, active = well fitted inhibition curve with a large enough effect; inconclusive = small, poorly fitted or top-dose-only effect; inactive = no such curve, though single readings can be large or run the other way. Potencies of inconclusive entries are doubtful fits and often do not repeat.
test: qHTS for Inhibitors of TGF-b; conditions: HepG2 CAGA-GFP TGF-b/SMAD3 reporter, GFP fluorescence, 18 h, TGF-beta stimulated, 500 pg/mL final; series mostly up to 46.1 µM; note: nearly all actives have a fitted effect of over 65% in size
Method in brief: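 Read-out: total well GFP (ex488/em500-530) summed from mean per-cell fluorescence. Cells: HEPG2 CAGA-GFP, 1% FBS DMEM, 18 h at 37 degrees C with 500 pg/mL final TGF-beta. Unstimulated wells served as the full-inhibition control; stimulated DMSO wells = 0%.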
Potency is the fitted concentration of half-maximal effect; tags give direction and shape of the fitted curve.

SMILES | Potency
CCOC(=O)c1cc(C#N)c(Oc2ccccc2OC)nc1-c1ccccc1 | inactive
Cc1[nH][nH]c(=O)c1C(c1c(C)[nH][nH]c1=O)c1cn(Cc2ccccc2Cl)c2ccccc12 | inconclusive: 17.8 µM [inhibitor, single point]
COCCn1c(C)cc(C(=O)COC(=O)c2ccc[nH]c2=O)c1C | inactive
Clc1ccc2c(NCc3ccccn3)ccnc2c1 | active: 12.6 µM
c1ccc(OCCOc2ncnc3sccc23)cc1 | inactive
Cc1ccc(NC(=O)CN(C)S(=O)(=O)c2cccc3nsnc23)c(C)c1 | inactive
CN(CC(=O)NC1CCCc2ccccc21)S(=O)(=O)c1ccc2c(c1)c(=O)n(C)c(=O)n2C (stereo unspecified) | inconclusive: 5.62 µM [inhibitor, single point]
COc1cc(C2C(=O)N(C3CCC(C)CC3)CC(=O)N2CCc2ccc(Cl)cc2)ccc1OC(C)C (stereo unspecified) | inconclusive: 0.112 µM [inhibitor, full curve, poor fit]
COC(=O)c1c(NC(=O)c2ccc(C(=O)c3ccccc3)cc2)sc2c1CC(C)(C)NC2(C)C | inactive
CCc1ccc(CNC(=O)CCc2cn(C)c3ccccc23)cc1 | inactive
COCCN(Cc1cc2ccc(C)cc2[nH]c1=O)S(=O)(=O)c1ccccc1 | inconclusive: 3.16 µM [inhibitor, partial curve, poor fit]
COc1ccc(Cl)cc1C(=O)Nc1ccc(NC(C)=O)cc1 | inconclusive: 3.55 µM [inhibitor, single point]
Cc1ccc(CSCC(=O)N/N=C/c2ccc(OCC(=O)Nc3ccc(C)cc3)cc2)cc1 | inconclusive: 35.5 µM [inhibitor, single point]
COc1ccc(-c2oc3ccc(-c4ccc(OC)nc4)cc3c2-c2ccc(OC)cc2)cc1 | inactive
Cc1nn(-c2ccccc2)c2[nH]c(=O)c(CNCC3CCCO3)cc12 (stereo unspecified) | inactive
O=c1cc(C(Cl)(Cl)Cl)oc2c1ccc1ccccc12 | inactive
Cc1cccn2c1nc(=S)n2C(=O)c1ccco1 | inconclusive: 6.31 µM [inhibitor, full curve, poor fit]
O=C(c1ccccc1O)N1N=C(c2ccccc2)CC1(O)C(F)(F)F (stereo unspecified) | inconclusive: 35.5 µM [inhibitor, single point]
Cc1cc2oc(C(=O)Nc3ccc(S(=O)(=O)Nc4onc(C)c4C)cc3)cc(=O)c2cc1C | inconclusive: 0.112 µM [inhibitor, full curve, poor fit]
Cc1cccc(-c2noc(-c3csc([C@@H]4C[C@H](O)[C@@H](CO)O4)n3)n2)c1 | inactive
COc1ccc(C(C#N)N2CCC(c3ccccc3)=N2)cc1OC (stereo unspecified) | inconclusive: 7.94 µM [inhibitor, partial curve]
Cc1ccc(C)c(NC(=O)Cn2c(=O)oc3cc(S(=O)(=O)NCc4ccccc4)ccc32)c1 | inconclusive: 35.5 µM [inhibitor, single point]
CNC[C@@H]1OCc2ccccc2-c2c(n(C)c3ccccc23)C(=O)N([C@H](C)CO)C[C@H]1C | inconclusive: 35.5 µM [inhibitor, single point]

SMILES | Potency
COC(=O)c1cn(CC(=O)Nc2ccccc2C)c2ccccc12 | inactive
Clc1ccccc1-c1nnn(Cc2ccc(-c3nn[nH]n3)cc2)n1 | inconclusive: 5.62 µM [inhibitor, single point]
CCN(CC)S(=O)(=O)c1cnccc1N1CCN(c2cccc(Cl)c2)CC1 | inconclusive: 3.55 µM [inhibitor, full curve, poor fit]
Cc1ccc(OC(C)C(=O)NCC2(N3CCOCC3)CCCCC2)cc1C (stereo unspecified) | inactive
Fc1cccc(CSc2ccc(-c3ccc4c(c3)OCO4)nn2)c1 | inactive
Cc1c(C(=O)N(C)C)sc2c1c(=O)n(-c1ccc(F)cc1)c(=O)n2CC(=O)N(C)c1ccccc1 | inactive
O=C(/C=C/c1ccc(F)cc1)NC(=S)N1CCOCC1 | inconclusive: 25.1 µM [inhibitor, single point]
CCO/N=C(\C)c1c(O)c2ccccc2n(C)c1=O | inactive
COc1cc(C(=O)OC2CC3CCC2(C)C3(C)C)ccc1OC(C)=O (stereo unspecified) | inconclusive: 22.4 µM [inhibitor, single point]
Cc1occc1C(=O)NNC(=S)Nc1ccccc1 | inactive
Cc1ccc(-c2noc(CSc3nnc(Cc4ccccc4)n3-c3ccc(Cl)cc3)n2)cc1 | inconclusive: 35.5 µM [inhibitor, single point]
COc1cccc(N2CCN(c3ncc4c(n3)CCN(Cc3ccc(Br)cc3)C4)CC2)c1 | inconclusive: 1.41 µM [inhibitor, full curve, poor fit]
O=C(CSc1ccc(-c2ccc3c(c2)OCO3)nn1)Nc1nccs1 | inconclusive: 6.31 µM [inhibitor, single point]
COc1ccc(CN2CCN(Cc3cccc(Oc4ccccc4)c3)CC2)c(OC)c1OC | inconclusive: 25.1 µM [inhibitor, single point]
CC(=O)c1ccccc1C(=O)N1CCCC(C(=O)c2ccc(C(F)(F)F)cc2)C1 (stereo unspecified) | inconclusive: 25.1 µM [inhibitor, single point]
COc1ccc(-c2nc(SC(C)C(=O)Nc3ccc(NC(C)=O)cc3)n[nH]2)cc1 (stereo unspecified) | inactive
Cc1ccc(NC(=O)CN(C)C(=O)c2cccnc2Nc2cccc(C(F)(F)F)c2)cc1 | inconclusive: 17.8 µM [inhibitor, single point]
COc1ccc(-c2csc(-c3cccs3)n2)c(OC)c1 | inactive
COc1ccc(-c2csc(NC(=O)Cc3cccc4ccccc34)c2C(=O)O)cc1 | inconclusive: 0.794 µM [inhibitor, partial curve]
Cc1cc(C)c(NC(=O)c2oc3ccccc3c2COc2ccccc2)c(C)c1 | inconclusive: 35.5 µM [inhibitor, single point]
O=C(CSc1nnc(Cc2ccccc2)o1)NC1CCCCC1 | inconclusive: 11.2 µM [inhibitor, partial curve, poor fit]
CCc1c(C)nc2cc(-c3ccccc3)[nH]n2c1=O | inactive
COc1ccc2[nH]c(=O)c(CNc3ccccc3)cc2c1 | inactive
